Results from PubChem BioAssay AID1963576 (National Center for Advancing Translational Sciences (NCATS), 2024).
Among all 46,000 compounds or so, about 60 (0.1%) were called active. About 3% were inconclusive and are not listed. The call rests on the fitted dose curve; in most records, active means well fitted inhibition curve with a large enough effect; inconclusive means small, poorly fitted or top-dose-only effect; inactive means no such curve, though single readings can be large or run the other way. Some of the results follow.

assay: Primary qHTS assay for Inhibitors of ovarian cancer metastasis using an organotypic tumor microenvironment (TME) model.; further: nearly all actives have a fitted effect of over 65% in size;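 on activity change, negative = inhibition: plate controls were DMSO wells for no effect and tomatine positive control wells for full effect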; conditions: SKOV3ip1-GFP adhesion/invasion on 3D omental model, fluorescence; series mostly up to 45.8 µM; activity change, negative = inhibition: at the top concentration
In short: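 Adhesion/invasion was scored as fixed GFP-labeled SKOV3ip1 cell counts (488/509 nm), normalized to DMSO and tomatine controls. Cancer cells in serum-free medium, with four compound doses (0.36-46 umol/L), sat 2 hr at RT then 16 hr at 37 C on a 48 hr fibroblast/mesothelial/ECM culture.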

outcome, inactive:
CCc1ccc(CN(Cc2ccco2)C(=O)COc2ccccc2Cl)cc1
Cc1ccc(NC(=O)CSc2nnc(COc3ccc(Cl)cc3)o2)cc1
NC(=O)CN1C(=O)C2(SCC(=O)N2c2cccc(F)c2)c2ccccc21 (configuration not stated)
CC(=O)OCc1cnc(C)c2oc(=O)c(C(=O)Nc3cc(F)ccc3C)cc12
CCCCN(CC)CCCNC(=O)Cn1nc(CC)n2c(cc3sccc32)c1=O
COc1ccc(Nc2ncnc3c2cnn3-c2cc(Cl)ccc2C)cc1OC
O=C(Cc1ccc(-c2ccccc2)cc1)NCCS(=O)(=O)N1CCN(c2cccc(Cl)c2)CC1
CCOc1ccc(Nc2sc(C(=O)c3ccc(F)cc3)c(N)c2S(=O)(=O)c2ccc(C)cc2)cc1
Cc1nc2cc(-c3ccc(Cl)cc3)nn2c(C)c1CCC(=O)N1CCN(c2ccccc2)CC1
COc1cc(Cl)c(C)cc1NC(=O)CNC(=O)Cn1ccc2ccccc2c1=O
COc1ccc(Cl)cc1NC(=O)c1ccc(CN2C(=O)CCn3nc(C)cc32)cc1
CCOc1ccc(C2C(=O)N(C3CCCCC3)CC(=O)N2Cc2ccccc2OC)cc1OC (configuration not stated)
COCCCNc1nc2c(c(=O)n(Cc3ccccc3)c(=O)n2C)n1C
CCOC(=O)c1nnn(CC(=O)NC(=O)Nc2ccccc2F)c1C(=O)OCC
Fc1ccc(Nc2nc(SCc3cccc(F)c3)nc3ccccc23)cc1

Activity change, negative = inhibition, inactive:
COc1ccc(C2C(C(=O)Nc3ccc(C)cc3C)=C(C)Nc3nc(SC)nn32)cc1OC (configuration not stated) -8.92%
COc1ccc(NC(=O)C2CCN(S(=O)(=O)c3cn(C)cn3)CC2)cc1Cl 12.1%
CCOc1ccccc1NC(=O)C1CCCN(c2ncnc3onc(-c4ccc(F)cc4)c23)C1 (configuration not stated) 1.35%
CC(C)C(=O)Nc1nnc(S(=O)(=O)N(C)Cc2ccc(F)cc2)s1 4.23%
O=C(c1ccc([N+](=O)[O-])cc1)N(Cc1ccco1)c1ccccn1 -9.35%
CC(C)n1nc(-c2ccc3oc(N)nc3c2)c2c(N)ncnc21 6.85%
COc1ccc(S(=O)(=O)Nc2ccc3c(c2)sc(=O)n3C)cc1Cl -2.76%
COc1ccccc1CNC(=O)c1ccc(-c2nc(CS(=O)c3ccc(C)cc3)c(C)o2)cc1 (configuration not stated) 1.21%
Cc1cc(C)cc(NC(=O)c2cn3c4c(ccc(Cl)c4c2=O)OC(C)C3)c1 (configuration not stated) 0.0887%
CCCCn1c(=O)c2oc3ccccc3c2n(Cc2ccc(OC)cc2)c1=O -16%
CCOC(=O)c1ccc(NC(=O)CCCn2nc(C)c3sc4ccccc4c3c2=O)cc1 3.96%
CSc1ncc(C(=O)NCc2ccc(F)cc2)c(-c2ccccc2)n1 -8.33%
CCOc1ccc(OCCOCCn2c(-c3ccc(Cl)cc3)nc3ccccc3c2=O)cc1 -8.85%
Cc1cccc(-c2nc(SCCCOc3cc(C)c(Cl)c(C)c3)n3[nH]c(=O)cc3n2)c1 -2.34%
COC(=O)CC(=O)CSc1nc2cc(C(=O)NC(C)C)ccc2c(=O)n1CCc1ccccc1 51.6%
Cc1ccc(C(=O)OC2=C(C(=O)c3ccccc3)N(C)S(=O)(=O)c3ccccc32)cc1 -11.5%
CCCc1oc2ccc(NS(=O)(=O)c3ccc(OCC)cc3)cc2c1C(=O)OCC -1.24%
Cc1oc2ncn(CC(C)C)c(=O)c2c1C(=O)NCc1cccc(Cl)c1 5.1%
O=C(CN1C(=O)COc2ccc(S(=O)(=O)N3CCOCC3)cc21)NCc1ccc(Cl)cc1 -22%
CCN(C(=O)CSc1nnc(-c2cc3occc3n2C)n1-c1ccccc1C)c1ccccc1 1.54%
Cc1ccc(Cn2c(C(=O)Nc3ccc(Cl)cc3)cc3sccc32)cc1 -3.38%
Cc1ccc(-c2onc(C)c2C)cc1S(=O)(=O)N1CCC(C)CC1 -34%
CCc1ccc(-c2nc3c(c(SCc4ccccc4)n2)Cc2c(CO)cnc(C)c2O3)cc1 -1.24%
CC(C)Oc1ccc(CNC(=O)c2cc3cccc4c3n2CC(C)S4)cc1 (configuration not stated) 3.33%
CCOC(=O)N1CCC(NC(=O)c2ccc3c(c2)N(Cc2ccccc2)C(=O)c2ccccc2S3(=O)=O)CC1 -20.4%
COc1ccc(Br)c2c1-c1nc(NC(=O)c3ccc(F)cc3)sc1C2 4.46%
CCOc1ccccc1CNC(=O)C(CC)n1nc(C)c2c(C)n(-c3ccccc3)nc2c1=O (configuration not stated) -14.8%
Cc1c(C(=O)NCc2ccccc2Cl)sc2nc3n(c(=O)c12)CCCC3 2.29%
COc1cc2c(cc1OC)C(COc1ccc3c(C)cc(=O)oc3c1)N(C(=O)c1ccc(C)cc1)CC2 (configuration not stated) 10.2%
Cc1ccc(C)c(NC(=O)CSc2nc(=O)n(CCN3CCOCC3)c3c2CCC3)c1 -3.89%
CCC(=O)N1c2ccccc2CC1C(=O)NCCCN1CCN(c2cccc(Cl)c2)CC1 (configuration not stated) 6.12%
CC(C)Cn1cc(NC(=O)NCc2ccc(Cl)cc2)c2ccccc2c1=O -9.2%
COc1ccc(C2c3c(n(C)c4ccccc34)C(=O)N2CC(=O)Nc2c(C)cc(C)cc2C)cc1 (configuration not stated) -3.61%
COc1ccc(C(=O)CN2CCN(S(=O)(=O)c3ccc(F)cc3)CC2)cc1 7.89%
O=C(Nc1ccc(Cl)cc1)c1ccc2oc(=O)n(Cc3ccccc3)c2c1 41.8%
Cc1ccc2c(c1)C(=O)OC(C(=O)Nc1ccc(C(=O)O)cc1)C2 (configuration not stated) -27.8%
O=C(c1cc(-c2ccc(Br)cc2)n[nH]1)N1CCN(S(=O)(=O)c2ccc(Br)s2)CC1 -23.4%
CCCCSc1nnc2[nH]c(=O)cc(C)n12 -0.864%
CC1CCN(C(=O)CCS(=O)(=O)c2cc3c(cc2Cl)NC(=O)CO3)CC1 -1.89%
CC(=O)OC1=C(C(C)=O)N(Cc2ccccc2)S(=O)(=O)c2ccccc21 15.9%
Cc1ccc(Cl)cc1NC(=O)c1csnn1 1.01%
Cc1cc(NC(=O)c2ccc(F)cc2)ccc1-c1cc2ccccc2oc1=O -3.7%
COc1ccc(-c2cn3c(n2)sc2cc(C(=O)Nc4ccc(F)cc4)ccc23)cc1 5.93%
CC(=O)N1CCC2(CC1)OC(=O)C(C)=C2C(=O)NCc1ccccc1Cl 1.71%
CCC(=O)N1CCc2cc(Br)cc(S(=O)(=O)CCC(=O)Nc3ccc(CC)cc3)c21 1.06%
CCOC(=O)c1ccc(N2C(=O)c3[nH]nc(-c4ccc(C)cc4)c3C2c2ccc(O)cc2)cc1 (configuration not stated) 4.13%
Cc1ccccc1CSc1ncc(Cl)c(C(=O)NCc2ccccc2)n1 1.5%
